# Reference: publication PMC4336329 (PLoS ONE, 2015)
# Out of some 310,000 compounds screened, about 2,200 (0.71%) showed an effect of 50% or more. The effect is printed as a negative number. This is one part of the list.
# Target: human ether-à-go-go-related gene (hERG) potassium channel (human, UniProt Q12809)
# Test: primary screen, population patch clamp on CHO cells stably expressing hERG
# Chain of human ether-à-go-go-related gene (hERG) potassium channel (Q12809 whole entry, looked up): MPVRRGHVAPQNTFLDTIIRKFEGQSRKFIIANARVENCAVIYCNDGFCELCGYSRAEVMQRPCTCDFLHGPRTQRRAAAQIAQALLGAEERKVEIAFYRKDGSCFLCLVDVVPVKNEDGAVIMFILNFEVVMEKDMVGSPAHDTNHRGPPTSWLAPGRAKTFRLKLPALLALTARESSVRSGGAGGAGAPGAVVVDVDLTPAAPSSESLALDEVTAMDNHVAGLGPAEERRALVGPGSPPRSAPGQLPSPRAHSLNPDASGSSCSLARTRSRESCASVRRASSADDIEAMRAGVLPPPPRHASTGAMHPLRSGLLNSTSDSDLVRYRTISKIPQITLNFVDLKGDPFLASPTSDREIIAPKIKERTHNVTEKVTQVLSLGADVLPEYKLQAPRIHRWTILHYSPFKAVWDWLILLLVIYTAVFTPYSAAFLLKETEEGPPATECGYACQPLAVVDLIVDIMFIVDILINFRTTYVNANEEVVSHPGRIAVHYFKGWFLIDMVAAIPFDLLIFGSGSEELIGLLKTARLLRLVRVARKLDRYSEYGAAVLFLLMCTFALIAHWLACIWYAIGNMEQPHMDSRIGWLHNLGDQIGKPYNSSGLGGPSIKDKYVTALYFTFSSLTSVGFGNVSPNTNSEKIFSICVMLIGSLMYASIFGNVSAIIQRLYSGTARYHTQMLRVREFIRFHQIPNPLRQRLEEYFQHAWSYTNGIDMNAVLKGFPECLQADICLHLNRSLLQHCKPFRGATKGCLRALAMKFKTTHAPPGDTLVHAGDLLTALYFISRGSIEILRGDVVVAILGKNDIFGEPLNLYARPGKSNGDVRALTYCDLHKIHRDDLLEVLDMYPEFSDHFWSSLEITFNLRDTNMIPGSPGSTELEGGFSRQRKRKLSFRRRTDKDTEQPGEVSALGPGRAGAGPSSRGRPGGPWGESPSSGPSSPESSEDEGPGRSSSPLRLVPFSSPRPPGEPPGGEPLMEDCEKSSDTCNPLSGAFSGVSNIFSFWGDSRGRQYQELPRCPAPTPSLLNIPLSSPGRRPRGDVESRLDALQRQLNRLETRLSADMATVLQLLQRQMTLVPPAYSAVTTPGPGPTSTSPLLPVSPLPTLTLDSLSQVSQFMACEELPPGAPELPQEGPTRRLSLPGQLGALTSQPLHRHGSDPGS
row,Compound,"hERG current change (%, negative = inhibition) at 1uM"
1,COc1ccc2c(c1)Sc1ccccc1N2CCN(C)C.O=C(O)C(=O)O,2.44%
2,COc1ccc(OC)c(S(=O)(=O)Nc2ccc(Oc3ccccc3)cc2)c1,-7.69%
3,Cc1ccc(-c2nc3ccccc3[nH]2)s1,-7.75%
4,C=CCC(C(=O)OC)(C(=O)OC)c1ccccc1[N+](=O)[O-],5.41%
5,CC12CC3CC(C)(C1)CC(CN)(C3)C2.Cl,2.2%
6,COc1ccccc1-c1nnc(SC/C(O)=C(\C#N)c2nc3ccccc3[nH]2)n1C1CCCCC1,10.8%
7,CC(C)CNC(=O)[C@H](Cc1ccccc1)NC(=O)c1ccco1,-4.95%
8,COc1ccc(N(C)C(=O)Cc2c(C(=O)O)n(C)c3ccccc23)c(OC)c1,20.9%
9,Cc1ccc(-c2nnc(Nc3ccccc3)c3ccccc23)cc1S(=O)(=O)NCC1CCCO1 (stereo not shown),-4.57%
10,N#Cc1cnn2c(C(F)(F)F)c3c(nc12)CCCC3,7.64%
11,CC(C)c1ccc(C2C(C#N)=C(N)N3C(=C2C#N)Sc2ccccc23)cc1 (stereo not shown),15.9%
12,CN1CCN(CC#CCOc2ccc(Cl)cc2)CC1.O=C(O)C(=O)O,13.5%
13,C/C(N)=C(/C#N)C(=O)COC(=O)CNS(=O)(=O)c1ccc2ccccc2c1,11.9%
14,COc1ccc(Br)cc1C(C[N+](=O)[O-])c1c(N)n(C)c(=O)n(C)c1=O (stereo not shown),9.81%
15,COc1ccc(/C=C/c2c(-c3ccc(OC)cc3)sc3ccc(N4CCOCC4)cc23)cc1,8.46%
16,CCc1ccc(-c2cc(C)no2)cc1S(=O)(=O)NCc1ccccc1OC,16.2%
17,Cc1cc(S(=O)(=O)N2CCOCC2)ccc1OCC(=O)N1CCCC1,15.4%
18,CCC(=O)N/C(N)=N/c1nc(C)c2cc(C)c(C)cc2n1,13.6%
19,CC(Cc1n[nH]c(=S)n1N)c1ccccc1 (stereo not shown),16.3%
20,CCOC(=O)c1cnn(-c2ncnc3c2oc2ccccc23)c1N,11.6%
21,CCOC(=O)C1C(c2cc(OC)c(O)c(OC)c2)NC(=S)NC1(O)C(F)(F)F (stereo not shown),7.44%
22,CN(C1=NC(=O)C(CC(=O)Nc2ccc(Br)cc2)S1)c1ccc(O)cc1 (stereo not shown),-12.2%

row,Compound,"hERG current change (%, negative = inhibition) at 1uM"
1,CC1CCc2nc3ccc(S(=O)(=O)N4CCC(C(=O)O)CC4)cc3c(C(=O)O)c2C1 (stereo not shown),9.69%
2,O=C(O)CSCC(=O)Nc1ccc(S(=O)(=O)N2CCCCC2)cc1,-2.03%
3,CCn1c(Cc2cccs2)nnc1SCC(=O)NC(C)(C)C,5.35%
4,CCn1c2ccccc2c2cc(NC(=O)COC(=O)c3ccc(O)cc3)ccc21,13.2%
5,COc1cc(C(=O)N2CCC(n3cnc4cc(F)ccc43)CC2)cc(OC)c1OC,-9.25%
6,O=C1CN(S(=O)(=O)c2cccc(Cl)c2Cl)c2ccccc2N1,13.3%
7,Cc1nc([N+](=O)[O-])cn1CC(=O)Nc1ccc([N+](=O)[O-])cc1,10.2%
8,Cc1ccc(-c2nc(C3CCN(S(C)(=O)=O)CC3)no2)cc1,10.3%
9,Cc1ccccc1OCCC(=O)OCC(=O)c1c(N)n(CC(C)C)c(=O)n(C)c1=O,-63.8%
10,O=C(O)c1cc(-n2cccc2)ccc1N1CCOCC1,7.77%
11,Nc1ncc([N+](=O)[O-])cc1S(=O)(=O)c1ccccc1,14.4%
12,CC(=NCc1ccc2c(c1)OCO2)c1c(O)n(C)c(=O)n(C)c1=O,0.351%
13,COc1ccc(C(=O)Nc2nnc(C)s2)cc1S(=O)(=O)N1CCOCC1,2.79%
14,Oc1oc(-c2ccccc2Br)nc1C=Nc1ccc(Br)cn1,14.5%
15,N#Cc1ccc(OC(=O)Cc2ccsc2)cc1,18%
16,Clc1ccc2scc(CN3CCCC3)c2c1,10.7%
17,c1ccc(-c2nc(NCC3CCCO3)c3ccccc3n2)nc1 (stereo not shown),-14.1%
18,CC(=O)Nc1ccc(S(=O)(=O)N2CCC(c3nc4ccccc4[nH]3)CC2)cc1,-4.27%
19,C/C(=N\NC(=O)c1cccc(O)c1)c1ccc(NC(=O)Cc2ccccc2)cc1,-19.1%
20,CC1(C)CC(=O)C(CCC(=O)c2ccccc2)C(C)(C)N1 (stereo not shown),7.76%
21,CC(NC(=O)CN(C1CCCCC1)S(C)(=O)=O)c1ccccc1 (stereo not shown),7.88%
22,COc1ccc(-c2nc(CS(=O)CC(=O)NCc3cccnc3)c(C)o2)cc1OC (stereo not shown),9.73%

row,Compound,"hERG current change (%, negative = inhibition) at 1uM"
1,CCOC(=O)c1[nH]c(C)c(C(=O)N(CC)CC)c1C,8.76%
2,Cc1c(Cl)cccc1-n1c(-c2cccnc2)n[nH]c1=S,16.6%
3,Cl.Fc1ccc(CN2C3=NCCCN3c3ccccc32)cc1,-32.8%
4,C/C(N)=C(/C#N)C(=O)CSc1nnc(Nc2c(C)cccc2C)s1,12.6%
5,CCN(c1ccccc1)P(=O)(Nc1ccccc1)Nc1ccccc1,7.98%
6,CCOC(=O)CC1C(=O)NCCN1C(=O)c1ccc(C)cc1 (stereo not shown),14.6%
7,CCSc1ncnc2c1sc1nc3c(cc12)COC(C)(C)C3,3.34%
8,Cc1cc(C)nc(NC(=O)CN2C(=O)c3ccccc3S2(=O)=O)n1,-0.221%
9,C=CCn1c(SCC(=O)Nc2sccc2C(N)=O)nc2ccc(Cl)cc2c1=O,1.53%
10,N#CCOc1ccc(C2=NO[C@@H]3[C@@H]4C[C@@H]([C@H]5C(=O)N(c6ccc7c(c6)OCO7)C(=O)[C@@H]45)[C@H]23)cc1,18.8%
11,O=C(Nc1ccc(Nc2ccncc2)cc1)c1ccc(Nc2ccnc3ccc([N+](=O)[O-])cc23)cc1[N+](=O)[O-],9.3%
12,COc1ccc(Cc2nnc(NC(=O)C3CCCO3)s2)cc1 (stereo not shown),6.5%
13,O=C(NOC(=O)c1ccccc1F)c1ccc(OC(F)F)cc1,6.47%
14,COc1ccc(S(=O)(=O)Nc2ccc(C(N)=O)cc2)cc1C(=O)N1CCCCCC1,17.2%
15,O=C(Nc1ccc(N2CCN(C(=O)c3cccs3)CC2)cc1)c1cccc(F)c1,3.5%
16,CCn1nnc(NC(=O)CSc2ccc(Cl)cc2)n1,-5.2%
17,COCCN(CCOC)C(=O)c1c[nH]c2ccc(S(=O)(=O)N(C)c3ccc(F)cc3)cc2c1=O,-10%
18,COc1ccc(CC(=O)Nc2nc3ccc(F)cc3s2)cc1S(=O)(=O)N1CCOCC1,3.6%
19,CCOc1cc2c(cc1OC)C(NC(=O)c1ccco1)CC2=O (stereo not shown),15.9%
20,Cc1ccc2c(c1)N(CC(=O)N1CCCC1)C(=O)CO2,6.48%
21,COc1ccc(S(=O)(=O)NC2CCCC2)c(Cl)c1Cl,16.2%
22,CC(NC(=O)C12CC3(C)CC(C)(CC(C)(C3)C1)C2)C(=O)O (stereo not shown),13.4%

row,Compound,"hERG current change (%, negative = inhibition) at 1uM"
1,O=C(c1ccc(C(F)(F)F)cc1)C1CCCN(C(=O)Cn2cnnn2)C1 (stereo not shown),6.42%
2,COc1ccccc1NC(=O)CS(=O)(=O)c1cn(CC(=O)N2CCCC2)c2ccccc12,8.11%
3,C[C@@H]1CCC[C@H](C)N1NC(=O)c1ccc(Cl)c(S(N)(=O)=O)c1,8.23%
4,O=C(NCc1ccccc1F)c1cccs1,-4.61%
5,O=c1[nH]cnc2scc(-c3ccc(Br)cc3)c12,9.92%
6,O=C(Nc1ccc(F)c(F)c1)c1ccc(F)c(S(=O)(=O)N2CCOCC2)c1,-14.2%
7,O=S(=O)(NCc1csc(-c2cccnc2)n1)c1cccs1,7.99%
8,COc1ccc(CNC(=O)c2cc3cc(OC)ccc3oc2=O)cc1,7.06%
9,Cc1ccc(S(=O)(=O)NC(C(=O)Oc2ccc3ccc(=O)oc3c2)c2ccccc2)cc1 (stereo not shown),7.71%
10,CSc1nnc(Cc2cc(=O)[nH]c(=O)[nH]2)n1-c1cccc(C)c1,7.12%
11,COc1ccc(NC(=O)c2cc([N+](=O)[O-])ccc2N2CCCCC2)cc1,10.3%
12,COc1ccc(CN(C)C(=O)CNC(=O)c2ccc(C)cc2)cc1,16.7%
13,COC(=O)c1cc(Cl)c(NC(=O)c2cc3ccccc3o2)cc1OC,7.73%
14,C=Cn1nc(C)c2ccccc2c1=O,15.7%
15,COCCCNC(=S)Nc1ccccc1C,16.5%
16,Cn1c(=O)oc2cc(S(=O)(=O)N3CCCC(C(=O)NCC4COc5ccccc5O4)C3)ccc21 (stereo not shown),12.3%
17,O=C(NC1CCN(C(=S)Nc2ccccc2Cl)CC1)C1CCCCC1,12.5%
18,O=C(NC(Nc1nc2ccccc2s1)(C(F)(F)F)C(F)(F)F)c1ccccc1,12.4%
19,FC(F)Sc1ccc(-n2cc(-c3ccc(Cl)cc3)[n+]3c2CCC3)cc1.[Br-],-28.8%
20,CN=c1scc(-c2ccc(Cl)cc2)n1C,-1.23%
21,Cc1cc(N=Nc2ccc(Cl)cc2)cc(CN2CCOCC2)c1O,12.7%
22,COc1ccc(CC(=O)OCC(=O)N2CCCc3ccccc32)cc1OC,5.98%
